Measurements: article PMC4336329 (PLoS ONE, 2015)
Screen size: about 310,000 compounds; about 14,000 (4.5%) showed an effect of 50% or more. Effects have a minus sign here. The list shows a part of the results.

Biological target: human ether-à-go-go-related gene (hERG) potassium channel (human, UniProt Q12809)
Experiment: primary screen, population patch clamp on CHO cells stably expressing hERG
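Also: peak tail current of the secondary pulse compared with the same well before compound.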

Chain of human ether-à-go-go-related gene (hERG) potassium channel (Q12809 whole entry, looked up): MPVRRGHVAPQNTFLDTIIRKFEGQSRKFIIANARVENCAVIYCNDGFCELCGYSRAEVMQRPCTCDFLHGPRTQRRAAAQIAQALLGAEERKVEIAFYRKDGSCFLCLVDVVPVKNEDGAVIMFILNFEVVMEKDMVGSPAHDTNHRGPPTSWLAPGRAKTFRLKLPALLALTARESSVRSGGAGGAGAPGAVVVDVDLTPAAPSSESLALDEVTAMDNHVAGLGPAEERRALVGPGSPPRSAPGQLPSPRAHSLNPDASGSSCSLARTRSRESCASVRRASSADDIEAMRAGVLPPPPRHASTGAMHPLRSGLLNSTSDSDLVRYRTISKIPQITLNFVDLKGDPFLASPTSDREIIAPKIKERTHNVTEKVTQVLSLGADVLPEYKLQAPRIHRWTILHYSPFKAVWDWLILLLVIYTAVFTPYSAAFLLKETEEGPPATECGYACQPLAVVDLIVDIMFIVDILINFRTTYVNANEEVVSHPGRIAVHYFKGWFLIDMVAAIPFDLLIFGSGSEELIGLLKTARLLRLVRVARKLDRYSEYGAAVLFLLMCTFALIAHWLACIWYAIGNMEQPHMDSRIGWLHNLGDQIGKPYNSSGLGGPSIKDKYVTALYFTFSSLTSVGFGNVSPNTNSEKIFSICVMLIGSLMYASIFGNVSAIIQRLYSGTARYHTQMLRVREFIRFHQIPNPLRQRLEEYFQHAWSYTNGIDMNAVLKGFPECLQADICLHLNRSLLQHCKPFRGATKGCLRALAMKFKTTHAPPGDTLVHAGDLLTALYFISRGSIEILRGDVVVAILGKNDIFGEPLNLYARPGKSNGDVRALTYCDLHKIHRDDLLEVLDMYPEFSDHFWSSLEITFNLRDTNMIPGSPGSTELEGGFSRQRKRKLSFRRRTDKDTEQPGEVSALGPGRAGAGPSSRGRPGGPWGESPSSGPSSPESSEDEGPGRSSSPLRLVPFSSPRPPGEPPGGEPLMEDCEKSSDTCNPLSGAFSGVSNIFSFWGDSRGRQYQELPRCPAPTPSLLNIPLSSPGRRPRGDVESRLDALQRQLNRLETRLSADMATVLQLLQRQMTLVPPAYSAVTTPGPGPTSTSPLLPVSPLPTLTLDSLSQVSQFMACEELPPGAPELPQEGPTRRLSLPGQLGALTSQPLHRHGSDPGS

| Structure (SMILES) | hERG current change (%, negative = inhibition) at 10uM [%] |
| --- | --- |
| Cc1cc2ncn(S(=O)(=O)c3ccc(S(=O)(=O)N4CCOCC4)cc3)c2cc1C | 4.83 |
| CCOc1ccc(/C=N/NS(=O)(=O)c2ccc(C)cc2)cc1OC | 16 |
| O=C(Nc1cccc2c1C(=O)NC2=O)c1ccccc1[N+](=O)[O-] | 17 |
| Cc1cc(-n2c(SCC(=O)NCCC3=CCCCC3)nc3n[nH]c(C)c3c2=N)ccc1Cl | 4.5 |
| Cc1onc(-c2ccccc2)c1C(=O)NNC(=O)c1ccccc1Br | 0.219 |
| Cn1c(=O)c2c(nc(Cl)n2Cc2ccc(Cl)c(Cl)c2)n(C)c1=O | -10.4 |
| COCCNc1nc(C)cc(-c2cc(C(=O)Nc3ccccc3)on2)n1 | -10.7 |
| CC(C)C(=O)Nc1cccc(NC(=O)c2cccc([N+](=O)[O-])c2)c1 | -30.9 |
| COCCn1c(-c2cccc([N+](=O)[O-])c2)nc2c1c(=O)[nH]c(=O)n2Cc1ccccc1 | -84.2 |
| CNC(=O)c1ccsc1NC(=O)CCS(=O)(=O)c1ccc(F)cc1 | -26.7 |
| CC(=O)N1CCN(Cc2nc(C(c3ccccc3)c3ccccc3)no2)CC1 | 10.8 |
| COc1ccc(-c2nnn(CC(=O)NCCc3c[nH]c4ccccc34)n2)cc1OC | -5.64 |
| COc1ccc(N2CCN(C(=O)CNS(=O)(=O)c3ccc(C)cc3)CC2)cc1 | -9.12 |
| COc1ccc(C(=O)c2ccccc2Cl)cc1 | -34.5 |
| Nc1nnc(-c2ccc(Cl)c([N+](=O)[O-])c2)s1 | 3.2 |
| CCc1noc(C)c1C(=O)N(CCCOC)c1c(N)n(Cc2ccccc2)c(=O)[nH]c1=O | 27.3 |
| Cc1cccc(-n2ncc3c2CCCC3NC(=O)CCCN2CCCCC2=O)c1C (stereo not drawn) | 12.7 |
| COc1ccc(-c2cc(=O)n(-c3nc4ccccc4[nH]3)[nH]2)cc1 | -53.1 |
| O=C1NCCN/C1=C\C(=O)c1ccc(F)cc1 | 15.3 |
| O=C(NC(=S)Nc1ccc(N2CCCC2)cc1)c1ccc(F)cc1 | 13.7 |
| Cc1cc(C)cc(NC(=O)C2CCCC2)c1 | 18.1 |
| CC(C)[C@H](N)c1nnc(SC/C=C/c2ccccc2)o1.Cl | -6.84 |
| O=[N+]([O-])c1ccc2[nH]ncc2c1 | 12.3 |
| CC(=O)N1CCN(C(=O)c2ccc(NS(=O)(=O)c3cc(C)ccc3C)cc2)CC1 | 9.15 |
